The campaign covered roughly 310,000 compounds. About 2,200 (0.71%) showed an effect of 50% or more. The effect is printed as a negative number. This is one part of the list.
molecular target: human ether-à-go-go-related gene (hERG) potassium channel (human, UniProt Q12809); assay: primary screen, population patch clamp on CHO cells stably expressing hERG
Sequence (Q12809 whole entry, looked up): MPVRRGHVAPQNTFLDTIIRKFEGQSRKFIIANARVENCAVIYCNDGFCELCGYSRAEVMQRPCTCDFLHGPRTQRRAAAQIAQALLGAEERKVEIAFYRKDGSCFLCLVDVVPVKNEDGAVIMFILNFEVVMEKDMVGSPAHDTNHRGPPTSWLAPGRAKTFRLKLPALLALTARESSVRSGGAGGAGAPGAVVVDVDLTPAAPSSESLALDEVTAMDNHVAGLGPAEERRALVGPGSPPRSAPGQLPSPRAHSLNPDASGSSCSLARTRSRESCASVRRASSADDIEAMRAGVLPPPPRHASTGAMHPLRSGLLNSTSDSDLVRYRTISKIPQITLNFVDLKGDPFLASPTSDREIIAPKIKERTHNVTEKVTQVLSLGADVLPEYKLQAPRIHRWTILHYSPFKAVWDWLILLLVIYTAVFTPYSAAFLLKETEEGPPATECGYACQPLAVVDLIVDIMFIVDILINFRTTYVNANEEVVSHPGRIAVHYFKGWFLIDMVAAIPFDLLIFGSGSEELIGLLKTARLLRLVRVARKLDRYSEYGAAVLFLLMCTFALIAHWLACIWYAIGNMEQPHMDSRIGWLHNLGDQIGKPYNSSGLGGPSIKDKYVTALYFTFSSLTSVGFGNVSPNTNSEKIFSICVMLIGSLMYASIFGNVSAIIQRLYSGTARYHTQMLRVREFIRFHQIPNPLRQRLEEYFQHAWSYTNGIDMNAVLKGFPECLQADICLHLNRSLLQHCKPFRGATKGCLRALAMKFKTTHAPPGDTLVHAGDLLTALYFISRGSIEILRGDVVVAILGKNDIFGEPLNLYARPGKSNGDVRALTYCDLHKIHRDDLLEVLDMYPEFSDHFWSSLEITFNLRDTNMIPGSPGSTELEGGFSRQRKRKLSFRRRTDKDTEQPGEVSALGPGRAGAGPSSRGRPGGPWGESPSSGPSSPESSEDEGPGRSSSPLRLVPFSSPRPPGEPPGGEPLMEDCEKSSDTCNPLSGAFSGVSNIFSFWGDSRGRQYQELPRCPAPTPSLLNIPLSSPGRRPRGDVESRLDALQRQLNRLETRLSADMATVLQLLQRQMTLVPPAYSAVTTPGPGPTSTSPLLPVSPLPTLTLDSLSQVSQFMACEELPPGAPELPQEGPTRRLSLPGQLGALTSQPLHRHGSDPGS

SMILES | hERG current change (%, negative = inhibition) at 1uM [%]
Cc1cc2oc(=O)cc(CN3CCCCC3C)c2cc1C(C)C (stereo not drawn) | -6.44
CCN(CC(=O)Nc1ccccc1C(F)(F)F)C(=O)c1ccc(N2C(=O)CCC2=O)cc1 | 11
CCCCN1C(=O)NC(=O)C2(Cc3ccccc3N3CCOCC32)C1=O (stereo not drawn) | 20.9
Cc1ccn2c(=O)c(NC(=O)c3cccc4ccccc34)c(C)nc2c1 | 14.6
CCNC(=O)NCc1c(C)c(C)n(Cc2ccccc2)c1-n1cccc1 | 2.48
Cc1ccc(S(=O)(=O)Nc2ccc(NC(=O)/C=C/C(=O)O)cc2)cc1 | 6.47
Cc1[nH]nc2c1C(c1ccsc1)C1=C(CC(C)(C)CC1=O)N2 (stereo not drawn) | 23.7
S=C(NCc1ccc(Cl)cc1)NCc1ccco1 | 16.5
Cc1cccc(NC(=O)c2ccccc2OCC(=O)c2ccc(F)cc2)c1 | 2.1
CC1CCCC(NC(=O)CCNC(=O)c2ccccc2Cl)C1C (stereo not drawn) | 7.25
CCOCCCNC(=O)NC(=O)CN1CCN(S(=O)(=O)c2ccc3c(c2)OCCO3)CC1 | 8.73
COC(=O)c1cn(NC(=O)c2ccc([N+](=O)[O-])c(C)c2)c(=O)c2ccccc12 | -3.22
CNC(=O)C(=O)Nc1cc2c3c(c1)CCC(=O)N3CCC2 | 5.98
O=C(NC1=NCCS1)c1cccc(F)c1 | 13.3
NC(=O)CCN1CCN(Cc2nc(C(c3ccccc3)c3ccccc3)no2)CC1 | 12.6
COc1ccccc1/C=C/CN1CC(C)OC(C)C1 (stereo not drawn) | 7.99
Cc1nc2sccn2c1P(c1c(C)nc2sccn12)c1c(C)nc2sccn12 | 6
CC(NC(=O)c1cc(S(=O)(=O)N2CCOCC2)ccc1F)c1ccc(-n2ccnc2)cc1 (stereo not drawn) | -24.6
COC(=O)C1=CN(C2CC2)C=C(C(=O)OC)C1c1ccccc1OC | -5.84
Cc1cccc(/C=N/NC(=O)c2ccc(F)cc2)n1 | 13
COc1ccc(/C=N/NC(=O)Cn2c(Cc3ccc(OC)c(OC)c3)nc3ccccc32)cc1OC | 15.3
O=C(c1ccc(CS(=O)Cc2ccc(Cl)cc2)o1)N1CCN(c2ccc(F)cc2)CC1 (stereo not drawn) | -11.6
Cc1ccc(N(C)S(=O)(=O)c2c[nH]c3ccc([N+](=O)[O-])cc23)cc1 | 19.3

SMILES | hERG current change (%, negative = inhibition) at 1uM [%]
COc1ccc(Nc2oc(COc3ccc(C)cc3)nc2C#N)cc1 | -18.4
O=C(CCc1nnc(CCCCc2ccccc2)o1)NCCC1CCCCO1 (stereo not drawn) | 9.06
CCOc1ccc(/C=C2\N=C(c3cccs3)OC2=O)cc1OC | 10.2
CCN1C(=O)[C@@H]2[C@H](C1=O)[C@@H]1C(=O)Nc3ccccc3C(=O)N1[C@@H]2c1cccc(C)c1 | -7.81
Cc1nn(C)cc1C(C)Nc1nc2nonc2nc1N1CCCCC1 (stereo not drawn) | 10.6
COc1ccc(CC(=O)Nc2ccc(N3CCOCC3)cc2)cc1S(=O)(=O)N1CCOCC1 | 3.1
COc1ccccc1N1CCN(C(=O)C2CCCO2)CC1 (stereo not drawn) | 16.8
CCC(C)CCN1C(Nc2ccccc2)=NC[C@@H]1CC(C)C (stereo partly drawn) | -11.6
CCCn1c(SCc2nc3ccccc3s2)n[nH]c1=O | 4.66
S=C1Cc2ccccc2C(c2ccc(Cl)cc2)N1 (stereo not drawn) | 5.13
CCOc1cc(/C=C(\C#N)C(N)=O)ccc1OS(=O)(=O)c1ccccc1 | 2.75
CCN(CC)CCCN(Cc1cc2cc3c(cc2[nH]c1=O)OCCO3)C(=O)Nc1ccccc1 | -2.3
O=C(COC(=O)/C=C/c1cccc(Br)c1)NCCc1ccccc1 | 6.43
COc1ccc(NC(=O)c2cccc(NC(=O)c3ccccc3)c2)cc1 | 11.4
Cc1ccc(-n2cnc3c(sc4nccc(N(C)C)c43)c2=O)cc1 | 0.658
Cn1c(=O)c2cc3ccccc3nc2n(C)c1=O | 13.9
CC(C)c1cc(Nc2cccc(O)c2)cc(C(C)C)c1O | 11.4
COc1ccc(S(=O)(=O)Nc2ccccc2C(=O)N2CCOCC2)cc1F | 13.8
Cc1cccc(C(=O)Oc2ccccc2-c2nnco2)c1 | 7.77
COc1ccccc1CN1CC(C(=O)N(C)Cc2ccc(C)o2)CCC1=O (stereo not drawn) | 7.14
O=C(NCCc1ccccc1)c1ccc(Cl)nc1 | 18
O=C(O)COc1ccccc1C(Nc1ccccn1)c1cc(Cl)c2cccnc2c1O (stereo not drawn) | 5.42
COC(=O)c1ccc(C(=O)OC)c(NC(=O)C2CC2)c1 | -15.9

SMILES | hERG current change (%, negative = inhibition) at 1uM [%]
CCC(C)CCN1C(Nc2ccccc2)=NC[C@@H]1C (stereo partly drawn) | 7.79
CCOc1ccc(NC(=O)CN(C)C(=O)c2cn3ccccc3n2)cc1OCC | -6.59
Cc1ccccc1NC(=O)CSc1ccc(-c2ccccn2)nn1 | 0.969
Cn1c(=NC(=O)CSCC(=O)N2CCCCC2)sc2ccccc21 | 6.13
N#Cc1nc(COc2ccc(Cl)cc2Cl)oc1N1CCOCC1 | 0.599
O=C(Cn1cc(C(F)(F)F)cc(Cl)c1=O)NCc1ccc(Cl)cc1 | 16.5
CCOc1cc(N2CCOCC2)c(OCC)cc1NC(=O)COC(=O)[C@@H]1CCCN1S(=O)(=O)c1ccccc1F | 2.02
COc1cc(OC)cc(C(=O)NNC(=O)c2ccc(-n3cncn3)c([N+](=O)[O-])c2)c1 | 9.34
O=C(CN1C(=O)C(=O)N(C2CCCC2)C1=O)NCCc1ccc(Cl)cc1Cl | 10.1
O=C(Cc1ccc(F)cc1)NC1CCS(=O)(=O)C1 (stereo not drawn) | 5.04
Cn1c(CCc2ccccc2)nnc1SCC(=O)N1CCCC1 | 8.11
S=c1nc(-c2ccccc2)n(CCCn2ccnc2)c2c1CCCC2 | 9.94
COc1cccc(OC)c1C(=O)Nc1ccc(C(=O)c2ccncc2)cc1 | -10.6
c1ccc(C2Nc3ccccc3-c3nc4ccccc4n32)cc1 (stereo not drawn) | 8.81
CCCCC1=CC2=C(c3ccco3)C(=O)C(C)(OC(=O)c3ccc(OC)cc3)C(=O)C2=CN1CCOC (stereo not drawn) | 6.22
CCOc1cc(NC(=O)c2ccccn2)c(OCC)cc1NC(=O)c1ccc(C)cc1 | 3.06
Cc1ccc(C(=O)NCCCNC(=O)COc2ccc(Cl)cc2)cn1 | 13.9
Cc1ccc(N2CCN(S(=O)(=O)N3CCCCC3)CC2)cc1Cl | 5.52
Cc1ccnc(SCCn2c(N3CC(C)CC(C)C3)nc3c2c(=O)n(C)c(=O)n3C)n1 (stereo not drawn) | 5.96
O=C(NC1CCN(c2ncccn2)CC1)c1cccc(F)c1 | 18.9
FC(F)(F)c1nnc2ccc(N3CCCCCC3)nn12 | -0.59
Cc1cccc(Nc2nc3c(c(=O)n(C)c(=O)n3C)n2CC(O)CO)c1 (stereo not drawn) | 2.85
COc1ccc2c(Cl)c(-c3nnco3)sc2c1 | 14.1

SMILES | hERG current change (%, negative = inhibition) at 1uM [%]
Cc1ccccc1NC(=O)Cn1c(CCC(=O)O)ccc1-c1cccs1 | 10.6
CCCN(CCC)C(=O)Cc1c(-c2ccc(Cl)cc2)nc2c(Cl)cc(Cl)cn12 | 10.6
O=C(COC(=O)c1cccc(S(=O)(=O)N2CCCCCC2)c1)Nc1ccccc1C(F)(F)F | 16.2
Cl.OCCN1CCN(CC#CCn2c3ccccc3c3ccccc32)CC1 | -9.67
Cn1nnc2cc(C(=O)Nc3ccccc3)ccc21 | 9.83
Cc1cccc(NC(=O)c2cc3c(s2)-c2c(C)cccc2OC3)n1 | 26.3
COc1ccc(NC(=O)[C@@H]2CCCN2C(=O)c2cccs2)cc1S(=O)(=O)N1CCCCC1 | 5.21
CCCCCCOC(=O)CCn1[nH]c(=O)c2ccccc2c1=O | 20
COc1ccccc1C1CC(c2ccc(NS(C)(=O)=O)cc2)=NN1S(=O)(=O)c1ccccc1 (stereo not drawn) | -21.1
Cc1ccc(C)c(N(CC(=O)N2CCc3ccccc3C2)S(C)(=O)=O)c1 | -10.5
Cc1ccc(S(=O)(=O)Nc2cc(C(=O)NCCN3CCCC3)ccc2N2CCCCC2)cc1 | -8.57
CCCc1ccc(S(=O)(=O)NCCc2ccncc2)cc1 | -3.65
CCN(CCO)c1ccc(N=Cc2c(O)n(C)c(=S)[nH]c2=O)cc1 | 10.5
COc1cccc(NC(=O)NCc2ccc(F)cc2)c1 | 3.63
O=C(c1ccccc1)N1CCCCCC1 | 18.8
COc1cc(C)nc(NS(=O)(=O)c2ccccc2Cl)n1 | 20
O=C(NC1CCCCCC1)c1nc2ncccn2n1 | 21.8
COc1ccccc1N1CCN(S(=O)(=O)c2c(C)sc3ncn(CC(=O)NCCN(C)C)c(=O)c23)CC1 | 10.8
CCOC(=O)Cc1csc(NC(=O)COc2ccccc2OCC)n1 | -6.51
Cc1cc(C=C2C(=O)CCCC2=O)c(C)n1-c1ccccc1 | 8.72
COc1ccccc1NS(=O)(=O)c1cccc(C(=O)N2CCN(Cc3ccc4c(c3)OCO4)CC2)c1 | -3.65

Source: PMC4336329 (PLoS ONE, 2015)
